# Whole data set: some 33,000 sequences, median “E-score (-0.5 to 0.5)” near -0.016, cut for the highest 2% near 0.32. The list shows a part of the results.
# Molecular target: T1, Stp1 (UniProt B3LFK1)
# T1 sequence: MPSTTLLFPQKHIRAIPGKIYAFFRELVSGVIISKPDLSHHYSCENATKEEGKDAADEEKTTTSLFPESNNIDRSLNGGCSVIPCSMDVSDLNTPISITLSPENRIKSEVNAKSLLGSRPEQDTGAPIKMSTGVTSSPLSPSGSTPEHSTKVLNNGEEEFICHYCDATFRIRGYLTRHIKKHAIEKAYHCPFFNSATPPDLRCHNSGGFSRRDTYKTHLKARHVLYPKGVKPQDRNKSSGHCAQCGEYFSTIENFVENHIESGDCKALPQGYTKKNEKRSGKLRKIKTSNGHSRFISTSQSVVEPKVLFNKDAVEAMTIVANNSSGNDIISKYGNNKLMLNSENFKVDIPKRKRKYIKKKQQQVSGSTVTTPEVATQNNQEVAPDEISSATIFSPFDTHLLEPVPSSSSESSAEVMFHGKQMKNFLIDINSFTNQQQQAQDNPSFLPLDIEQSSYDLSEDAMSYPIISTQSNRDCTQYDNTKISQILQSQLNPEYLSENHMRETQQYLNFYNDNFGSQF
# Assay: PBM E-score (8-mer binding enrichment) (E-score (-0.5 to 0.5)); higher = stronger / more preferred TF binding; most listed sequences are background and not binding sites
# Conditions: protein concentration: 200 nM; construct: GST-full length
# Method: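 Universal 'all 10-mer' protein binding microarrays (Agilent AMADID 015681) probed with GST-tagged S. cerevisiae TFs (full-length or DBD) made by in vitro transcription/translation (PURExpress), about 100-200 nM. Bound TF was detected with fluorescent anti-GST. Each ungapped 8-mer (which stands for itself and its reverse complement) is scored by the PBM enrichment score (E-score), a modified Wilcoxon-Mann-Whitney statistic from -0.5 to +0.5, computed with the Universal PBM Analysis Suite. Scale: above 0.35 generally sequence-specific binding.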
row,Sequence,PBM E-score
1,GTCTAGGA,-0.156
2,ACCTGTGA,-0.159
3,AGGTGTGG,-0.103
4,GTATTTTA,0.142
5,GGGAGCAC,-0.246
6,CACCATAA,0.147
7,ATCATTCG,0.119
8,TACCAGCA,-0.0453
9,GATATAGC,-0.0525
10,AAGTCCGA,-0.222
11,AGATACGG,0.284
12,TAAAGGGA,-0.164
13,AAGCTGGA,-0.0865
14,CACCATCA,-0.0942
15,AACTGGTG,-0.127
16,GTTTCTCA,-0.115
17,TAGAGGCA,-0.0206
18,CAATCGAA,0.163
19,CAAGCCCA,-0.0787
20,CCAGGAGC,-0.0555
21,GACACTCC,0.0152
22,ACGACCGA,-0.223
23,GTATTGAC,-0.0318
24,GGGGAAAC,-0.177
25,GGGATGTA,-0.109

row,Sequence,PBM E-score
1,AAGAGACC,-0.0796
2,ATCCAATG,-0.0429
3,CTCATGGA,-0.173
4,CTGCGATA,0.0226
5,CCTTTTAA,0.139
6,AAGAGCCA,0.103
7,GACACATC,-0.088
8,CTCTAAAG,-0.0701
9,AGCTCATG,-0.18
10,ACTCATAA,-0.0106
11,ACGCAACC,-0.0424
12,CGGAGTCC,-0.0203
13,CGCGGCTA,0.397
14,AAGGGCAC,0.314
15,GCATTGCA,0.147
16,ACGCGGTC,-0.0102
17,CACTGAAC,0.109
18,ATCCCTAG,-0.0475
19,ACCACCTA,-0.249
20,CTGCCCCC,-0.327
21,AAAGGTAG,-0.156
22,CTGACGCC,0.0864
23,CCTCTTCG,0.0316
24,ATGCCCTA,0.168
25,CTTGCCTC,0.0687

row,Sequence,PBM E-score
1,CCCACGAG,-0.267
2,AGACTGTC,-0.207
3,CCGGCTAC,0.0509
4,ACGTGGAG,-0.218
5,CCACTAGA,-0.0989
6,AGTATATA,0.363
7,GCGATGGA,0.00754
8,AGGACTCC,-0.375
9,AGCTTGCC,-0.0811
10,AACGAGCC,0.133
11,CGCCCCAC,0.179
12,ATACTGAC,0.112
13,TCGAACGA,0.0236
14,GAGGTATC,-0.0217
15,CGGTGTAC,-0.0565
16,CATAAATA,0.184
17,CTGAAAAC,0.171
18,CCAAATAG,0.0384
19,ACTCCTTC,-0.245
20,AGCTAGAG,-0.00782
21,CGGCTTTC,0.196
22,ACCCCTCT,-0.267
23,ACTGTCAG,-0.00332
24,GTTAGGCA,0.101
25,AATTACTC,0.144

row,Sequence,PBM E-score
1,CGCAATCC,-0.0128
2,GAGGTCTA,-0.139
3,ACCGTGTG,0.151
4,AACATCGT,-0.00324
5,CGTTGGCA,0.233
6,GATGCTGC,-0.0227
7,ACGGATTG,0.113
8,AAAGGGTG,-0.123
9,CCTACCGA,-0.153
10,CGGGTCGA,-0.207
11,ACATGTGC,0.142
12,GGGGTTGA,-0.167
13,GATAAACC,0.172
14,AACTACCG,-0.103
15,GACCTCTC,-0.186
16,CTCGGAAG,-0.0743
17,CTAGAGAC,-0.325
18,CCAGTCCC,-0.246
19,ATTTTCAC,0.213
20,TGCCTCCA,-0.281
21,CAGCGTGC,0.00112
22,CTAGCGAG,-0.227
23,AGGTAAGA,-0.0903
24,ATCAACAT,0.0155
25,AAGCCAAC,0.146

row,Sequence,PBM E-score
1,AACCAATG,-0.0152
2,GCGTATGA,0.09
3,AATTATAG,0.0636
4,CAATTCAG,-0.175
5,GTCTAAAC,0.0396
6,ACGGGCAA,0.0357
7,CAGACCCG,-0.0255
8,ATCAGTAC,0.023
9,CTACTATC,0.125
10,AAGAACGT,0.0579
11,CCCCATGC,-0.0589
12,TTCGTCAA,-0.079
13,TTCATCAA,0.0209
14,TATTCTAA,0.0429
15,TAGCATGA,-0.11
16,ATTCAATA,0.23
17,CGATCGAC,0.0877
18,ACAGGAAT,-0.0486
19,GCGGCTAA,0.304
20,GACCAGGA,-0.165
21,TGGGTGAA,0.154
22,CGAATATC,-0.0869
23,CACCTGAG,-0.123
24,AGGATAAG,-0.123
25,TCGTTAAA,-0.0183

row,Sequence,PBM E-score
1,CACATCTC,-0.0379
2,TCATCAAA,0.137
3,TCGATAGA,0.1
4,CATTAGTA,-0.0313
5,GAGCAATA,-0.0681
6,AGCACTTC,-0.208
7,AAGTGGGG,-0.355
8,ACCCATCC,-0.189
9,CCTTCCGC,-0.0417
10,GAATGACC,-0.102
11,ACGCCTAC,-0.0656
12,AATAGTTA,0.164
13,AGAGCCCG,-0.0895
14,ATTAACAA,0.249
15,GAACACCA,-0.133
16,CCTCCAAG,-0.0795
17,AATCGATA,0.18
18,AGGCACCA,0.366
19,ACCGTTAT,-0.0617
20,ACTCATCA,-0.0466
21,CATTCTGC,0.0719
22,TAAACAGA,-0.0109
23,ATCACCTA,-0.175
24,CTCAAGCA,-0.183
25,AATCATGC,-0.024

row,Sequence,PBM E-score
1,ACACATGC,0.0352
2,GAGGATCC,-0.139
3,GTCTCGTA,-0.0751
4,CAAAACGA,0.108
5,CAAATTAA,0.117
6,ATGAGATC,-0.0595
7,CACGACGA,-0.0637
8,ATCCGTTC,0.217
9,AACGGTGA,-0.0237
10,AATACAAT,0.0401
11,AAGTGGAG,0.00133
12,AAGGATAG,-0.00218
13,CTGACCGC,-0.11
14,TCATAGGA,0.0953
15,ACATGGGT,-0.108
16,TCATGGAA,-0.0494
17,AGTAGCAC,-0.0227
18,GGAACTCA,-0.201
19,ACAAGGGT,-0.0238
20,CTTCTCTC,-0.035
21,ACGCCTCG,0.381
22,CTTAGCTA,-0.0783

# — the supplement of paper PMC3334620
